# Results reported in the supplement of paper PMC12217912.
# This is one part of the list. Sequences were assembled here from the parent chain. Inactive controls read about 0.05.
# B1: TEV protease; numbered along this chain (parent)
# chain: MGESLFKGPRDYNPISSSICHLTNESDGHTTSLYGIGFGPFIITNKHLFRRNNGTLVVQSLHGVFKVKDTTTLQQHLVDGRDMIIIRMPKDFPPFPQKLKFREPQREERICLVTTNFQTKSMSSMVSDTSCTFPSGDGIFWKHWIQTKDGQCGSPLVSTRDGFIVGIHSASNFTNTNNYFTSVPKNFMELLTNQEAQQWVSGWRLNADSVLWGGHKVFMVKPEEPFQPVKEATQL
# Variants of: B1
# Assay: raw area under fraction-flipped curve 0-4 h after induction (AUC4h, not background-subtracted), DNA-recorder readout of cleavage of the substrate (dimensionless); higher = more cleavage of the substrate by the protease variant
# Conditions: temperature: 34 °C; time window: 0-4 h after rhamnose induction
# 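Note: Bxb1 expression induced with 0.2% (w/v) L-rhamnose at OD600 near 0.5, cultures sampled hourly, flipped fraction per protease–substrate barcode pair counted by paired-end Illumina sequencing.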
Variant,area with substrate ECLYFQS,area with substrate EDLYFQS,area with substrate EHLYFQS,area with substrate EKLYFQS,area with substrate EQLYFQS,area with substrate ERLYFQS,area with substrate ESLYFQS,area with substrate EVLYFQS,area with substrate EWLYFQS,area with substrate EFLYFQS,area with substrate EILYFQS,area with substrate ELLYFQS,area with substrate EMLYFQS,area with substrate EYLYFQS,area with substrate EPLYFQS,area with substrate EELYFQS,area with substrate EGLYFQS,area with substrate ETLYFQS,area with substrate EALYFQS
D128F,0.15,0.157,0.137,0.179,0.196,0.181,0.183,0.127,0.136,,,,,,,,,,
D128Y,0.147,0.164,,0.156,0.187,0.144,0.16,0.103,,0.112,0.128,0.112,0.135,0.192,,,,,
D128W,0.177,0.188,0.217,0.22,0.208,,0.197,0.136,,,0.157,,,,0.218,,,,
D128M,0.18,0.15,0.174,0.181,0.178,,0.159,,0.152,0.182,0.148,,0.158,0.19,0.166,0.17,0.123,,
V200T,0.0886,,0.0922,,,0.0942,0.1,0.0975,,,,0.0871,,0.0869,,0.105,,0.11,
V200L,0.0716,,,,,,,0.0273,0.0729,,,,,,0.0761,0.0829,0.136,0.103,
V200I,0.113,,,0.142,0.147,,0.104,,,0.106,,,,,,0.149,,,
V200S,0.0759,,,,,,0.0985,,,,,,,,,,,,
V200A,0.0542,0.046,,,,0.0681,0.0733,0.0767,,,0.058,,,0.0536,,,0.0637,,
K120G,0.0982,,,,,0.0799,0.0847,,,,,0.0704,0.121,,0.11,,,,
N24Y,0.14,,0.0986,0.103,0.101,0.101,0.0937,0.106,0.069,,0.0966,0.122,0.101,0.103,,,0.096,,
N24R,0.0831,0.0624,,0.0685,0.0657,0.064,0.0637,0.0729,0.0775,,0.0769,0.0606,,0.0751,0.075,0.079,0.0711,,
P96K,0.0608,0.107,,0.0791,0.118,0.0995,,0.107,0.0968,,0.0911,0.0915,,,0.0971,0.143,,0.124,
P96M,0.0921,0.121,0.113,0.0983,,0.0963,0.077,,0.0837,0.0537,0.117,0.0934,0.103,0.0895,,,0.0872,0.116,
H168F,0.0579,,0.0522,,0.0541,0.0464,0.0657,0.0627,0.0623,0.0522,0.0429,,,0.0469,0.066,,,0.0584,
H168N,0.0559,0.0616,,0.0718,,0.0672,0.0519,,0.0627,,0.0658,,0.0572,,0.0935,,,,

Variant,area with substrate ECLYFQS,area with substrate EDLYFQS,area with substrate EHLYFQS,area with substrate EKLYFQS,area with substrate EQLYFQS,area with substrate ERLYFQS,area with substrate ESLYFQS,area with substrate EVLYFQS,area with substrate EWLYFQS,area with substrate EFLYFQS,area with substrate EILYFQS,area with substrate ELLYFQS,area with substrate EMLYFQS,area with substrate EYLYFQS,area with substrate EPLYFQS,area with substrate EELYFQS,area with substrate EGLYFQS,area with substrate ETLYFQS,area with substrate EALYFQS
H168A,0.0488,0.0565,,0.0607,,,,0.0756,,0.0758,,,,0.0697,,,,0.0506,
H168M,0.058,0.0621,,0.0676,0.0505,0.0609,0.0578,0.0493,,0.0733,0.0552,0.0499,0.0577,,,0.0596,0.067,,
V64P,0.0877,,0.0766,0.105,,0.061,0.0699,0.0373,0.0747,0.108,,,0.127,0.138,,,,,
V64K,0.105,0.118,0.133,,0.159,,0.105,0.0983,0.0735,,0.112,,0.125,0.122,0.0736,,0.0883,,
V64L,0.125,,,0.113,,0.109,0.088,0.113,0.0979,,,,0.123,,,,,,
S32M,0.141,0.145,0.0968,,0.135,0.141,0.157,0.099,,,0.0872,,,,0.143,,,,0.215
S32D,0.0954,0.0932,0.0873,0.0777,0.0927,0.0997,0.0923,0.0943,0.0807,,0.0904,0.0378,0.0938,,0.0914,0.103,0.0867,,
S32W,0.0902,,0.112,0.125,0.13,0.115,0.117,0.109,,,0.0981,0.0975,,,,0.131,,,
G8A,0.13,,,,,0.1,0.108,,,,,,0.124,,,0.125,0.1,,
T72G,0.0822,0.111,0.0641,0.0676,0.11,,0.0701,0.0925,0.0969,,0.0823,0.0818,0.0769,,,0.106,,,
P40F,0.0676,0.114,0.0811,0.112,0.102,0.0964,0.0859,0.0687,,,0.103,0.0876,0.0972,0.131,0.0928,,0.0699,0.0978,
P40D,0.17,0.14,,,,0.111,0.113,0.1,0.119,0.104,,0.107,,,,,0.117,,
P40H,0.131,0.0826,0.107,,0.0987,0.0963,0.128,0.106,0.0934,0.0888,0.0999,0.115,0.122,0.11,,0.0995,0.102,,
P40S,0.112,0.148,0.135,0.0986,0.102,0.0889,0.0987,0.105,0.0965,0.103,0.103,0.211,0.128,0.0979,0.151,0.141,0.119,0.132,
D208S,0.0754,,0.106,,,,,,0.0745,,,0.0539,,,,,,0.11,
D208E,0.0976,0.12,,0.116,0.115,0.119,0.0885,,,0.0879,0.0859,0.0879,0.147,,,,0.0858,0.0942,
